In paper PMC4336329 (PLoS ONE, 2015):
In all, about 310,000 compounds went through this assay and about 14,000 (4.5%) showed an effect of 50% or more. The effect is printed as a negative number. This is one part of the list.

biological target: human ether-à-go-go-related gene (hERG) potassium channel (human, UniProt Q12809); assay: primary screen, population patch clamp on CHO cells stably expressing hERG
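Also: peak tail current of the secondary pulse compared with the same well before compound.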

Chain of human ether-à-go-go-related gene (hERG) potassium channel (Q12809 whole entry, looked up): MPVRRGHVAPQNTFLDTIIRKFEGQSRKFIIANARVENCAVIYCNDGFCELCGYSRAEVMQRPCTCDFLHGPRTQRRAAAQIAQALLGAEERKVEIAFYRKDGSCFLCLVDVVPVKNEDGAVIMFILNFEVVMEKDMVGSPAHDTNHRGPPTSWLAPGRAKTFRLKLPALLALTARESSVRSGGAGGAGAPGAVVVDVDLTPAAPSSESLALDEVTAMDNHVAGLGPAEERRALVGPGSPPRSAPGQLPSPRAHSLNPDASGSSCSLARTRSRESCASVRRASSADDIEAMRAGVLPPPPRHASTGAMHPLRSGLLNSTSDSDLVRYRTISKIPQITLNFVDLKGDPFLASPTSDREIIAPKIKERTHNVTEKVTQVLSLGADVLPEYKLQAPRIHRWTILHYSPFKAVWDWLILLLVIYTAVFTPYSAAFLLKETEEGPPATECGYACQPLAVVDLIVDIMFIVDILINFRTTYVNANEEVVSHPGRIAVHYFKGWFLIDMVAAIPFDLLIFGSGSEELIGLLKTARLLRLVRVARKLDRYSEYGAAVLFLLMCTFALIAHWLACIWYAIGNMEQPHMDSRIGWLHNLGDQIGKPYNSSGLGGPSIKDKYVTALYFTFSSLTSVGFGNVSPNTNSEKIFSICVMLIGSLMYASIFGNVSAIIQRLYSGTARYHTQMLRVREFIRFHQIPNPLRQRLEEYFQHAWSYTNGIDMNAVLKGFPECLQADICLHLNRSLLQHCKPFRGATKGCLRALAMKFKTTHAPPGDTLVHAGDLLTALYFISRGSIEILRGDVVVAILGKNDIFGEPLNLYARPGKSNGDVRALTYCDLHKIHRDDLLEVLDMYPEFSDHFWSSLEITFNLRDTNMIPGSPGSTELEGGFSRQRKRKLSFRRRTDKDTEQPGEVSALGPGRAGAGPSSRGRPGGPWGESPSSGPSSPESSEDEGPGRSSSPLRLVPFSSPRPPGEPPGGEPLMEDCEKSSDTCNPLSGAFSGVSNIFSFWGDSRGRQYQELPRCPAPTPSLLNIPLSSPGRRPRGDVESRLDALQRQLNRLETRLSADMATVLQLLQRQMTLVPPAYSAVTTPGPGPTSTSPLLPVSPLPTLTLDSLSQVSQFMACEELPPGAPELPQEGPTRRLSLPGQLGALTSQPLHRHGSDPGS

Structure (SMILES) | hERG current change (%, negative = inhibition) at 10uM
Cc1c(C(=O)Nc2ccc(S(=O)(=O)N3CCOCC3)cc2)cccc1[N+](=O)[O-] | 1.39%
N/C(=N\OC(=O)c1cccc(Cl)c1)c1cccnc1 | 1.32%
CC(=O)c1ccc(N2CCC(C(=O)O)CC2)cc1 | 14.3%
O=C(CCN1C(=O)c2ccccc2C1=O)NCc1ccco1 | 5.09%
CCN(CC)S(=O)(=O)c1ccc(NC(=O)Cn2c(=O)sc3ccccc32)cc1 | -10.9%
Cc1cc(C)cc(OCC(=O)NN2C(=O)c3ccccc3C2=O)c1 | -3.98%
CCCCC[C@H]1CN(Cc2ccccc2)C(=O)[C@@H]1CC(=O)NCc1ccccc1 | -65.8%
CCOC(=O)C1CCN(C(=O)c2ccc(OCC(=O)Nc3cccc(C(F)(F)F)c3)c(OC)c2)CC1 | -61.9%
COc1ccc(NC(=O)CN(c2ccc(F)cc2)S(=O)(=O)c2ccccc2)c(OC)c1 | -11.3%
Cc1nnc(SCC(=O)N(CC(C)C)c2c(N)n(CC(C)C)c(=O)[nH]c2=O)n1-c1ccccc1 | 14%
C#CCNC(=O)C1=C[C@H](c2coc3ccccc3c2=O)[C@@H](CCCO)[C@H](OCC)O1 | -23.3%
C/C(=N\OCC(=O)Nc1ccccc1C(C)(C)C)c1ccc2c(c1)OCCO2 | -10.9%
CCOC(=O)C1=C(c2ccccc2)N=C2SCC(=O)N2C1c1ccc2c(c1)OCO2 (centres unmarked) | -1.14%
CC(=O)OCC1OC(c2ccccc2)C(OC(C)=O)C(OC(C)=O)C1OC(C)=O (centres unmarked) | -4.94%
COc1ccc(C(=O)/C=C/C(=O)N(Cc2ccccc2OC)C(C(=O)NC2CCCCC2)c2ccncc2)c(O)c1 (centres unmarked) | -1.42%
COc1ccc(S(=O)(=O)N2CCCC(C(=O)N3CCN(C)CC3)C2)cc1Cl (centres unmarked) | -12.4%
O=C(Nc1ccncc1)C1(c2ccccc2)CCCC1 | -4.27%
CCOc1ccc(N2C(=O)Nc3ccc(Br)cc3C2(O)C(=O)NCCN(C)C)cc1 (centres unmarked) | 19.4%
Cc1cccc(OCC(=O)N(C)CC(=O)Nc2cccc(F)c2)c1C | 2.94%
Cc1ccc(NS(=O)(=O)c2ccc(N/N=C/c3ccncc3)c([N+](=O)[O-])c2)c(C)c1 | 3.64%
COc1ccc(-c2cc3nc[nH]c(=O)c3s2)cc1 | 19.4%
CCOC(=O)N1CC[NH+](CCC(=O)Nc2cccc(Br)c2)CC1.[Cl-] | -30.2%

Structure (SMILES) | hERG current change (%, negative = inhibition) at 10uM
Cc1ccc(Cl)cc1NC(=O)CSc1sc2c(O)cc(=O)[nH]c2c1C#N | 1.68%
COc1ccc(C(=O)NC2CCN(C(=S)Nc3cccc(C)c3C)CC2)cc1 | 0.204%
O=C(NC1CCCC1)C1CCCN1C(=O)Nc1ccccc1Cl (centres unmarked) | -1.42%
Cc1ccn2cc(-c3cccc(S(=O)(=O)N4CC(C)OC(C)C4)c3)nc2c1 (centres unmarked) | -14.3%
CN(c1ccccc1)S(=O)(=O)c1ccc(C(=O)NCc2ccccn2)cc1 | 2.3%
CCCc1cc(=O)n2[nH]c(NCc3ccc(OC)c(OC)c3)nc2n1 | 15%
Cc1ccc(SCCC(=O)Nc2nccs2)cc1 | -2.24%
O=c1c(-c2ccc(Cl)cc2)coc2c(CN3CCOCC3)c(O)ccc12 | -8.33%
CC1CCCN(Cc2nc3c(c(=O)n(C)c(=O)n3C)n2CCCc2ccccc2)C1 (centres unmarked) | -27.8%
CCOC(=O)NC1(NCC(C)C)Oc2ccccc2O1 | -2.09%
CC(=O)c1ccc(NC(=O)C2C3CCC(C3)C2C(=O)O)cc1 (centres unmarked) | 17.8%
CCN(CC)C(=O)c1sc(NC(=O)c2ccco2)c(C#N)c1C | 0.887%
CN1CCN(c2ccccc2NC(=O)c2cc3ccccc3o2)CC1 | -39.2%
CCOc1ccc(NC(=S)NC(C)c2cccs2)cc1 (centres unmarked) | 14.1%
CN1C2=CC=CC=CC2=[N+](C)C12C([N+](=O)[O-])=CC(=[N+]([O-])[O-])C=C2[N+](=O)[O-] (centres unmarked) | 9.42%
CCN(CC)C(=O)CN(C)S(=O)(=O)c1cccc2nsnc12 | 12.2%
CC1(C)OC(=O)C(=NNc2ccccc2)C(=O)O1 | 30.1%
COc1ccc(Br)c(C(=O)Nc2nc3ccccc3[nH]2)c1 | 19.8%
CCOC(=O)C(=O)Nc1ccc(S(=O)(=O)Nc2ncccn2)cc1 | 2.41%
O=C(Nc1ccccc1C(F)(F)F)c1ccc(F)c(S(=O)(=O)N2CCOCC2)c1 | 0.595%
COc1ccc(-c2nc3ccccc3c(=O)n2-c2cccnc2)cc1 | -8.9%
Cc1sc2ncn(-c3ccccc3)c(=O)c2c1C | 11.5%
